Here are results for four compounds from PMC6033897, “Characterization and Validation of a Human 3D Cardiac Microtissue for the Assessment of Changes in Cardiac Pathology” (Scientific Reports, 2018).

Where a name gives a salt, the structure may show the parent alone.

In general, IC50 refers to the midpoint of a concentration-inhibition curve. Read a low IC50 as higher potency.

For data set [1], the system named is cardiac microtissues. The experiment in a line: ER integrity (ER-Tracker blue imaging) in cardiac microtissues. The conditions noted are these: Homo sapiens, 72 hours, geometric mean. The class given is cell-based. As to the method:
(§1) Cardiac microtissues were stained with fluorescent probes in cell culture media, 40 µl media was removed and 40 µl of 2x multiplexed dye was added back to the well for 30 minutes at 37 °C, 5% CO2. Fluorescent probes used were ER-Tracker blue (2 µM) to measure endoplasmic reticulum (ER) integrity and TMRE (500 nM) to measure mitochondrial membrane potential (ΔΨm). All microtissues were imaged on a Cell Voyager 7000 (YokogawaInc.) and images captured using a 20x objective (Olympus UPLSAPO 0.75 NA, 0.6 mm WD), with a 2 × 2 bin. Plates are imaged live, prior to use the stage temperature was set to 37 °C and CO2 level at 5%. […] Transmitted light images were acquired using a 100 W Halogen lamp as an illumination source. Images were captured over a 60 μm range in the Z-axis with a 5 μm interval between slices. Z-stack images were output as a maximal projection of multiple z-planes.
(§2) Maximum projection images were imported and analysed in the Columbus Platform (v2.7, Perkin Elmer Inc.).

Data set [2] deals with cardiac microtissues. The experiment in a line: Mitochondrial membrane potential (ΔΨm, TMRE imaging) in cardiac microtissues. The class given is cell-based. The conditions noted are these: Homo sapiens, 72 hours, geometric mean. As to the method:
as §1, §2

Data set [3] has as its system cardiac microtissues. The experiment in a line: Cellular viability (ATP depletion, CellTiter-Glo) in cardiac microtissues. Conditions: Homo sapiens, 72 hours, geometric mean. The class given is cell-based. As to the method:
Cellular ATP concentrations were assessed using the CellTiter-Glo® Luminescent Cell Viability Assay as per the manufacturer’s instructions (Promega); for cardiac microtissues 40 µl media was removed prior to the addition of 40 µl CellTiter-Glo® reagent. […] Data from the same treatment on minimum of 3 occasions were averaged to represent the mean ATP measurement.
On the technique in general: In ATP-based viability assays light output follows the ATP content of the culture.

For data set [4], the system named is cardiac microtissues. The data set is described as follows: Therapeutic index (IC50 in cardiac microtissues divided by total Cmax). The class given is cell-based, human.

In the case of `Cc1ccc(NC(=O)c2ccc(CN3CCN(C)CC3)cc2)cc1Nc1nccc(-c2cccnc2)n1` [Imatinib Mesylate], the half-inhibitory concentration (IC50) in the data set on cardiac microtissues [1] is over 50 µM; in the data set on cardiac microtissues [2], 6.29 µM; in the data set on cardiac microtissues [3] it was 15.8 µM.
The like results for `CN(C)CCN(Cc1cccs1)c1ccccn1` [Methapyrilene] were, in that order, 75 µM, over 100 µM and over 100 µM.
For `CCCCc1oc2ccccc2c1C(=O)c1cc(I)c(OCCN(CC)CC)c(I)c1` [Amiodarone HCl] the same measures were 23.6 µM, 5.29 µM and 16 µM.
Regarding `CN1CCN(C2=Nc3cc(Cl)ccc3Nc3ccccc32)CC1` [Clozapine], the IC50 with cardiac microtissues [1] is 7.82 µM; with cardiac microtissues [2] it was 56.4 µM; in the data set on cardiac microtissues [3], over 100 µM. In addition, in the data set with cardiac microtissues [4], the “Therapeutic index (TI): lowest IC50 of ΔΨm, ER integrity or ATP depletion / total Cmax” value is given as at most 100 times Cmax.
